Paper PMC4336329 (PLoS ONE, 2015)
The whole screen tested about 310,000 compounds, of which about 2,200 (0.71%) showed an effect of 50% or more. Effects have a minus sign here. The list shows a part of the results.

target: human ether-à-go-go-related gene (hERG) potassium channel (human, UniProt Q12809); test: primary screen, population patch clamp on CHO cells stably expressing hERG
Sequence (Q12809 whole entry, looked up): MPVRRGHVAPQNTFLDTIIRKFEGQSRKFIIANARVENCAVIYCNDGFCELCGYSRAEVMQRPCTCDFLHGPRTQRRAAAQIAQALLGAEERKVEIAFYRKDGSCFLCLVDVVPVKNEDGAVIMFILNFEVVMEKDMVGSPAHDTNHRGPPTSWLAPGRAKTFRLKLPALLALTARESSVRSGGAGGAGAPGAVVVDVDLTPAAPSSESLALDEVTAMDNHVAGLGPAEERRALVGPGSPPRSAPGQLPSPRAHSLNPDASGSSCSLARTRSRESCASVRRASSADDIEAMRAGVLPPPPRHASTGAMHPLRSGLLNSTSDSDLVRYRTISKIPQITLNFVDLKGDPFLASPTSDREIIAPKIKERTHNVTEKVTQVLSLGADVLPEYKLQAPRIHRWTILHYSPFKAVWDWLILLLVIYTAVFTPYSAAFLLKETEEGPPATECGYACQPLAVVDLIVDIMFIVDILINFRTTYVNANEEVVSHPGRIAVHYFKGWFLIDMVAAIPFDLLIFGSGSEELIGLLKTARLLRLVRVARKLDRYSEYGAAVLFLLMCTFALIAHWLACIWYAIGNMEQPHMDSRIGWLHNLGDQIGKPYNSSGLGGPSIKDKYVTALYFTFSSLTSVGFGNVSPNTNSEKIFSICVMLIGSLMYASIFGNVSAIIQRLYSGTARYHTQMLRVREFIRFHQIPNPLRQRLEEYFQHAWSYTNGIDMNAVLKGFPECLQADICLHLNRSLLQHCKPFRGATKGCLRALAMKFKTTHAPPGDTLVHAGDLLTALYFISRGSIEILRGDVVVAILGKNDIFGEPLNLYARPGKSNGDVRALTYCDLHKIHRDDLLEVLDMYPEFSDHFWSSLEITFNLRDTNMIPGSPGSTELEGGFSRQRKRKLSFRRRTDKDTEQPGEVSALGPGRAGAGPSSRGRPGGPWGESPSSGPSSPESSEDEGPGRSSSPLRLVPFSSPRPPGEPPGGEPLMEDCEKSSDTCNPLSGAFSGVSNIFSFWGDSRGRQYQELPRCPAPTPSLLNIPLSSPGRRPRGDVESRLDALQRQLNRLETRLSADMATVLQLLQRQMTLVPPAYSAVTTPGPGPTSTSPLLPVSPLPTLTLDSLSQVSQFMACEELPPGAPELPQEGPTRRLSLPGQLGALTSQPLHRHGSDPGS

Question: `CC(C)(C)C(=O)Nc1ccc(S(=O)(=O)N2CCCC2)cc1` was tested. Which “hERG current change (%, negative = inhibition) at 1uM” value did it give?
Answer: 6.72%

Question: Which “hERG current change (%, negative = inhibition) at 1uM” value does the source give for `CC(C)OC(=O)/C(=C\c1cccc2ccccc12)NC(=O)c1ccccc1` here?
Answer: 2.63%

Question: How did the “hERG current change (%, negative = inhibition) at 1uM” value turn out when `CCOC(=O)C1CCN(CC(O)COCc2ccc(Cl)cc2)CC1.Cl` (centres unmarked) was run?
Answer: -58.6%

Question: Which “hERG current change (%, negative = inhibition) at 1uM” value does the source give for `O=C(N/C(=C/c1ccc(F)cc1)C(=O)N1CCCCC1)c1ccco1` here?
Answer: 7.27%

Question: Which “hERG current change (%, negative = inhibition) at 1uM” value does the source give for `COc1ccccc1OCc1cc(C(=O)N2CCCC(OCc3cccnc3)C2)no1` (centres unmarked) here?
Answer: -1.83%

Question: For `COCCN(C(=O)COC(=O)/C=C/c1ccc(OC)c(OC)c1)c1c(N)n(Cc2ccccc2)c(=O)[nH]c1=O`, which “hERG current change (%, negative = inhibition) at 1uM” value is on record?
Answer: 4.93%

Question: How did the “hERG current change (%, negative = inhibition) at 1uM” value turn out when `CC(=O)c1cccc(S(=O)(=O)N2CCC(C(=O)Nc3cccc(C(=O)NC4CC4)c3)CC2)c1` was run?
Answer: 9.97%

Question: How did the “hERG current change (%, negative = inhibition) at 1uM” value turn out when `CN(C)c1ccc(NC(=O)Nc2ccc3c(c2)nnn3C)cc1` was run?
Answer: 5.98%

Question: How did the “hERG current change (%, negative = inhibition) at 1uM” value turn out when `Cc1ccc(-n2nnc3c(=O)n(CC(=O)NCc4ccco4)cnc32)cc1` was run?
Answer: 1.42%

Question: How did the “hERG current change (%, negative = inhibition) at 1uM” value turn out when `COc1ccc(NC(=O)c2csc3c2CCCCC3)c(OC)c1` was run?
Answer: -0.286%

Question: Which “hERG current change (%, negative = inhibition) at 1uM” value does the source give for `O=C(NCC1CCCO1)Nc1cc(Cl)cc(Cl)c1` (centres unmarked) here?
Answer: 3.82%

Question: With `Cc1ccc(NC(=S)N/N=C/c2ccc([N+](=O)[O-])s2)cc1` as the molecule, how does the “hERG current change (%, negative = inhibition) at 1uM” value read?
Answer: 2.76%

Question: How did the “hERG current change (%, negative = inhibition) at 1uM” value turn out when `COc1ccc2c(c1O)C13CCN(C)C(C2)C1CCC(=O)C3` (centres unmarked) was run?
Answer: 3.58%

Question: Which “hERG current change (%, negative = inhibition) at 1uM” value does the source give for `O=C(NNC(=O)C1CCN(c2ncccn2)CC1)c1ccc(Cl)cc1` here?
Answer: 11.7%

Question: `O=C(NC1CCCCCC1)c1c(F)c(F)c(F)c(F)c1F` was tested. Which “hERG current change (%, negative = inhibition) at 1uM” value did it give?
Answer: 6.52%

Question: For `NC(=NC(=O)c1ccc(OCC(F)(F)F)nc1)c1ccccc1`, which “hERG current change (%, negative = inhibition) at 1uM” value is on record?
Answer: 3.03%

Question: With `C/C(=N\Nc1ncc(Cl)cc1Cl)c1ccc(N2CCOCC2)cc1` as the molecule, how does the “hERG current change (%, negative = inhibition) at 1uM” value read?
Answer: 2.74%

Question: With `COc1cccc(/C=C2\SC(=S)N(CCCC(=O)Nc3cc(C)on3)C2=O)c1` as the molecule, how does the “hERG current change (%, negative = inhibition) at 1uM” value read?
Answer: 15.6%

Question: With `O=C(NC(=S)NCc1cccnc1)c1cccc2ccccc12` as the molecule, how does the “hERG current change (%, negative = inhibition) at 1uM” value read?
Answer: 14.3%

Question: Which “hERG current change (%, negative = inhibition) at 1uM” value does the source give for `CCc1ccc(CNC(=O)C2CCC(=O)N2C2CCCCC2)cc1` (centres unmarked) here?
Answer: -12.5%

Question: With `O=S(=O)(c1cc(-c2nnc(-c3ccc(Br)cc3)o2)ccc1Br)N1CCCCCC1` as the molecule, how does the “hERG current change (%, negative = inhibition) at 1uM” value read?
Answer: 6.17%

Question: With `COc1ccccc1Oc1c(C)oc2c(CN3CCN(C)CC3)c(O)ccc2c1=O` as the molecule, how does the “hERG current change (%, negative = inhibition) at 1uM” value read?
Answer: 3.11%

Question: Which “hERG current change (%, negative = inhibition) at 1uM” value does the source give for `O=C(O)CNC(=S)N(Cc1ccccc1)Cc1ccccc1F` here?
Answer: 18%

Question: For `O=C(NCc1ccc(Cl)cc1)c1ccc(-n2cccn2)nc1`, which “hERG current change (%, negative = inhibition) at 1uM” value is on record?
Answer: 17.2%

Question: For `Cl.NCCc1nnc(SCc2ccccc2)o1`, which “hERG current change (%, negative = inhibition) at 1uM” value is on record?
Answer: 13.8%

Question: `Cc1ccc(/C=N/NC(=O)c2cccc3ccccc23)o1` was tested. Which “hERG current change (%, negative = inhibition) at 1uM” value did it give?
Answer: 9.89%

Question: Which “hERG current change (%, negative = inhibition) at 1uM” value does the source give for `CC(C)(CO)NCc1ccccc1OCC(=O)Nc1ccccc1` here?
Answer: -3.77%

Question: For `C=C(c1ccccc1)P(=O)(O)O`, which “hERG current change (%, negative = inhibition) at 1uM” value is on record?
Answer: 18%

Question: For `O=C(N/N=C\c1cccnc1)c1cc(-c2ccccc2)nc2c(Cl)cccc12`, which “hERG current change (%, negative = inhibition) at 1uM” value is on record?
Answer: 13.3%

Question: For `CCN(c1cccc(C(F)(F)F)c1)S(=O)(=O)c1ccc2c(c1)CCN2C(=O)C1CC1`, which “hERG current change (%, negative = inhibition) at 1uM” value is on record?
Answer: 2.06%

Question: For `CCOC(=O)C(C(=O)OCC)C1N=C(N)N=C2Oc3ccccc3N21` (centres unmarked), which “hERG current change (%, negative = inhibition) at 1uM” value is on record?
Answer: 20.6%

Question: How did the “hERG current change (%, negative = inhibition) at 1uM” value turn out when `O=C(Cc1ccsc1)N1CCN(S(=O)(=O)c2ccccc2F)CC1` was run?
Answer: -5.39%

Question: Which “hERG current change (%, negative = inhibition) at 1uM” value does the source give for `NS(=O)(=O)c1ccc(F)c(C(=O)O)c1` here?
Answer: 12.5%

Question: Which “hERG current change (%, negative = inhibition) at 1uM” value does the source give for `Cc1sc(N)nc1C12CC3CC(CC(C3)C1)C2` here?
Answer: 15.3%

Question: How did the “hERG current change (%, negative = inhibition) at 1uM” value turn out when `CN(C)c1ccc(/C(=N\O)C(F)(F)F)cc1` was run?
Answer: 23.6%

Question: Which “hERG current change (%, negative = inhibition) at 1uM” value does the source give for `COc1ccc(NC(=O)CCN2CCOCC2)c(OC)c1` here?
Answer: 2.36%

Question: `Cc1cc(O)c(C=Nc2cccc(Cl)c2)c(=O)o1` was tested. Which “hERG current change (%, negative = inhibition) at 1uM” value did it give?
Answer: 3.75%

Question: How did the “hERG current change (%, negative = inhibition) at 1uM” value turn out when `O=C1CC(c2ccccc2Cl)c2c(sc3c(=O)[nH]c(CCl)nc23)N1` (centres unmarked) was run?
Answer: 8.68%

Question: For `Cc1ccc(N2C(=O)C(Cc3ccc(O)cc3)NC2=S)cc1C` (centres unmarked), which “hERG current change (%, negative = inhibition) at 1uM” value is on record?
Answer: 2%

Question: For `N/C(=N\OC(=O)c1ccccc1)c1ccn[nH]1`, which “hERG current change (%, negative = inhibition) at 1uM” value is on record?
Answer: 6.14%

Question: `COc1ccc(CC(=O)Nc2ccc3nc(SC)sc3c2)cc1OC` was tested. Which “hERG current change (%, negative = inhibition) at 1uM” value did it give?
Answer: 14.4%

Question: Which “hERG current change (%, negative = inhibition) at 1uM” value does the source give for `CC(C)c1ccc(OCC(=O)N(c2ccccn2)C2CCCCC2)cc1` here?
Answer: 5.22%

Question: For `CCOC(=O)C1(Cc2cccc(OC)c2)CCN(C2CCOCC2)CC1`, which “hERG current change (%, negative = inhibition) at 1uM” value is on record?
Answer: -16.3%

Question: Which “hERG current change (%, negative = inhibition) at 1uM” value does the source give for `Cc1ccsc1C1Nc2ccccc2C(=O)N1O` (centres unmarked) here?
Answer: 6.02%
